Laboratory results reported in the supplement of paper PMC5499739.
Over roughly 16,000 sequences, “Z-score” has its median near -0.37; the highest 2% begin near 3.2. The list shows a part of the results.

tested on: RBM10 RRM1-ZnF (GST-tagged construct); experiment: RNAcompete 7-mer binding Z-score; higher = stronger binding preference
How it was run: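 A designed pool of 241 399 RNAs, each up to 41 nt and transcribed from microarray-derived DNA templates, was used at 1.5 nmol with 20 pmol of GST-tagged RBM10 constructs. The mixture, in 1 ml Hepes pH 7.8 buffer with KCl, NaCl, glycerol, DTT, BSA and glutathione Sepharose beads, was held 30 min at 4°C and then washed four times for 2 min at 4°C. Bound RNA was read out by microarray hybridisation, and enrichment of each heptamer motif was scored as a one-sided Z-score over the probes carrying it.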

In order of falling “RNAcompete 7-mer binding Z-score” value:
1. GGGUGUG  3.76
2. GGUGGUA  2.95
3. GGUAUAG  2.52
4. ACAGGUA  2.37
5. GGGGCAC  2.36
6. ACGGGGC  2.26
7. CGCGGGG  2.15
8. GGCGGGC  2.11
9. AGAGGUG  2.04
10. CUGGGGA  1.76
11. UUGGUGA  1.7
12. ACGCGGG  1.63
13. CUGCGGG  1.52
14. GGGAUUU  1.51
15. AUGACGG  1.39
16. GUAGACG  1.3
17. GAAGGUC  1.25
18. AUACAGG  1.23
19. UAGGCGA  1.14
20. ACGGAAU  1.09
21. GUUGUAG  0.985
22. CAAGCGG  0.982
23. AUGAGGC  0.969
24. CGCGGUG  0.94
25. UAGAAUG  0.92
26. CAAAAGG  0.888
27. AAGGCAU  0.79
28. GUAAAUG  0.768
29. ACCGAGG  0.699
30. AGGGUCU  0.667
31. AUGUGGC  0.586
32. GGUAACU  0.582
33. AGUUGGC  0.579
34. AUGAAGA  0.547
35. AGAAGCG  0.543
36. AGAGAAA  0.495
37. AGCAUAG  0.482
38. GAUAAGA  0.465
39. GAAGCGU  0.446
40. AAGCAAG  0.423
41. UGAUAUG  0.397
42. AAGAGAC  0.3
43. AUGAGAA  0.277
44. UGGUAUC  0.27
45. GUCACAG  0.257
46. AAUUGAG  0.218
47. UGUACAG  0.205
48. UGAAGAU  0.196
49. UAUGAGA  0.17
50. UGCGAGU  0.166
51. GGCUGCC  0.153
52. GUACGGC  0.153
53. CCGGAGA  0.131
54. AAUGAGC  0.124
55. AGAGUGC  0.121
56. UUUAGAG  0.111
57. CAGCGGC  0.0983
58. CCAGGUU  0.082
59. GCGCAGC  0.0658
60. GGACUCG  0.0528
61. GGUACUU  0.0398
62. UGGUCUA  0.03
63. AGUAGUA  0.0268
64. UGACGUA  0.0268
65. UGAUUGA  0.0105
66. GUAGCCA  0.00729
67. GCAGAUA  -0.0122
68. GGCUCGA  -0.0285
69. UGUAUGA  -0.0447
70. GGCGCCA  -0.0609
71. UGAAAAU  -0.0869
72. CCGAGGC  -0.0902
73. GAACCAG  -0.0934
74. UUAAUGU  -0.106
75. AUAUGAA  -0.129
76. GAUUGAC  -0.129
77. UAAGAAA  -0.178
78. UAAACAG  -0.191
79. GACUCGG  -0.204
80. GUAUCGU  -0.204
81. CGGAACC  -0.22
82. CAGUACG  -0.259
83. AAACGUA  -0.262
84. GUACGUC  -0.262
85. UUCGAUG  -0.269
86. CAGCUAG  -0.285
87. UGAAAAA  -0.292
88. GCGCACU  -0.295
89. UCCCCGC  -0.314
90. UUUUGGC  -0.318
91. UCCCCGG  -0.324
92. CAGAAUU  -0.327
93. CAUACAG  -0.34
94. CACGGUC  -0.36
95. GCAUUGU  -0.366
96. GGCUCUC  -0.396
97. CGACACA  -0.405
98. CAACCCC  -0.418
99. AAUGCUA  -0.425
100. AUGCUGC  -0.435
101. CGGUCCG  -0.438
102. ACUCUGG  -0.451
103. CGCCGUC  -0.457
104. AAUUAUA  -0.464
105. CGGCUCA  -0.467
106. AGCUCGU  -0.48
107. AUUAUUA  -0.483
108. UAAAAUU  -0.483
109. GAACGCU  -0.487
110. UCUCUGG  -0.49
111. CUACAUA  -0.493
112. CCCGGAA  -0.5
113. UACGCUC  -0.506
114. CUGAAUA  -0.506
115. GCGUAUC  -0.513
116. CCCGCCU  -0.513
117. UUGACUG  -0.513
118. ACGCAUU  -0.516
119. AAGCUUG  -0.519
120. UGACUUA  -0.522
121. CCAGUCA  -0.526
122. UACCAAA  -0.529
123. AACUACU  -0.529
124. UAUUGUU  -0.542
125. CACCGCA  -0.548
126. UAAGCAU  -0.561
127. UUGGUCC  -0.561
128. UAAUCUA  -0.571
129. UCUUGUG  -0.578
130. CUGUCGU  -0.581
131. AGUCUAC  -0.584
132. UCUUAAG  -0.6
133. AAUGACC  -0.6
134. CUCAAGA  -0.6
135. UAUGCCC  -0.6
136. UAAUCGU  -0.604
137. CCGCCUA  -0.61
138. AGGCUUC  -0.613
139. CGGCCUC  -0.617
140. GAUCAUC  -0.617
141. AGUCCUA  -0.617
142. CACGCUA  -0.62
143. UCGCGUU  -0.62
144. UCUACUG  -0.623
145. CCGAUUG  -0.629
146. AUUGUUC  -0.629
147. CUUCGUG  -0.636
148. CAUGACU  -0.649
149. UGCCGAC  -0.652
150. UGCUAUU  -0.659
151. CCCUAGA  -0.665
152. UCUCAGU  -0.668
153. GCCAUCU  -0.675
154. UUGCUCG  -0.675
155. CCAAGUC  -0.678
156. GCCCGUA  -0.681
157. AUUACCG  -0.694
158. CCUCACG  -0.701
159. CAGAUCU  -0.707
160. UUUCUCG  -0.727
161. CUAUACU  -0.73
162. AGAUACU  -0.733
163. UCCUGCC  -0.733
164. UCAUUCA  -0.737
165. ACUAACU  -0.737
166. CUGUACU  -0.743
167. CGAUGCU  -0.743
168. CCAUAUC  -0.75
169. CUUCUGA  -0.75
170. AAUCCCA  -0.766
171. CCUUCGC  -0.766
172. CCUAGAC  -0.795
173. AUCUUUU  -0.805
174. CUCAAUU  -0.805
175. AAUCUUG  -0.805
176. CAUACCC  -0.808
177. CGUAUCU  -0.857
178. ACCCUUC  -0.863
179. CGCCUUU  -0.863
180. AUCCUAC  -0.87
181. GACCCAU  -0.876
182. CCAAAUU  -0.889
183. UCUACUU  -0.932
